# Counter-ions that a name gives are not always drawn. ± gives the standard deviation of the averaged measurements. The list shows a part of the results.
# Test system: murine small intestinal organoids (ENR+CD Paneth differentiation)
# Assay: basal (non-stimulated) secreted lysozyme activity relative to plate median (log10 fold change); higher = more Paneth cell lysozyme secretion
# Settings: 2 µM; 6 d
# 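Note: ISC-enriched organoid precursors grown as 2.5D pseudo-monolayer on Matrigel, compound given on day 0 and day 3, plate values LOESS-normalized before median fold change, three murine donors.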
row,Structure (SMILES),basal (log10)
1,COc1ccc(COc2ccc(Cc3cnc(N)nc3N)cc2OC)cc1,-0.0603 ± 0.017
2,Cc1ccc(S(=O)(=O)OCC(=O)Nc2ccc(C(=O)O)c(O)c2)cc1,0.0532 ± 0.058
3,CCN(c1cc(-c2ccc(CN3CCOCC3)cc2)cc(C(=O)NCc2c(C)cc(C)[nH]c2=O)c1C)C1CCOCC1,0.015 ± 0.099
4,NC(=O)Nc1cc(-c2cccc(F)c2)sc1C(=O)N[C@H]1CCCNC1,-0.211 ± 0.11
5,COc1ccc(CNCc2cccc3ccccc23)cc1,0.0727 ± 0.018
6,CC(C)CCNC(=O)[C@H](CC(C)C)NC(=O)[C@H]1O[C@@H]1C(=O)O [Loxistatin Acid (E-64C)],0.0554 ± 0.076
7,O=C(O)c1cccc(-c2noc(-c3ccccc3F)n2)c1 [Ataluren (PTC124)],0.131 ± 0.18
8,CN(Cc1cnc2nc(N)nc(N)c2n1)c1ccc(C(=O)N[C@@H](CCC(=O)O)C(=O)O)cc1 [Methotrexate],-0.13 ± 0.051
9,CN1C2CCCC1CC(NC(=O)c1nn(C)c3ccccc13)C2 (stereo not given) [Granisetron HCl],0.0178 ± 0.028
10,COc1cc(Br)c(Nc2nc(-c3c(C)nc4ncccn34)cs2)c(Br)c1,-0.00877 ± 0.23
11,CN[C@@H](C)C(=O)N[C@H](C(=O)N1CCC[C@H]1C(=O)Nc1snnc1-c1ccccc1)C1CCCCC1,0.0832 ± 0.17
12,O=C1CC(=O)c2c(Cl)c(Cl)c(Cl)c(Cl)c21,-0.0745 ± 0.0071
13,"COc1cc2c(cc1Cc1cccc(Cl)c1F)c(=O)c(C(=O)O)cn2[C@H](CO)C(C)C [Elvitegravir (GS-9137, JTK-303)]",-0.0943 ± 0.074
14,O=[N+]([O-])c1ccc2c(c1)S(=O)(=O)C=C2 [Stattic],0.046 ± 0.058
15,CC(C)(C)c1cc(/C=C(\C#N)C(N)=S)cc(C(C)(C)C)c1O [Tyrphostin AG 879],-0.0878 ± 0.039
16,CN1CCC[C@@H]1CCO[C@](C)(c1ccccc1)c1ccc(Cl)cc1 [Clemastine Fumarate],-0.0143 ± 0.035
17,NC(=O)c1ncn([C@@H]2O[C@H](CO)[C@@H](O)[C@H]2O)c1N [Acadesine],0.0161 ± 0.05
18,O=C(O)Cc1cccc(OCCCN(Cc2cccc(C(F)(F)F)c2Cl)CC(c2ccccc2)c2ccccc2)c1,0.0773 ± 0.072
19,CNC(=C[N+](=O)[O-])NCCSCc1ccc(CN(C)C)o1 [Ranitidine],-0.07 ± 0.013
20,O=C(NOC[C@H](O)CO)c1ccc(F)c(F)c1Nc1ccc(I)cc1F,-0.139 ± 0.081
21,COc1ccc2cccc(CCNC(C)=O)c2c1 [Agomelatine],0.0686 ± 0.077
22,CNC(=O)c1cc(Oc2ccc(NC(=O)Nc3cc(C(C)(C)C)nn3-c3ccc4ncccc4c3)c(F)c2)ccn1 [DCC-2036 (Rebastinib)],0.0731 ± 0.089
23,CCN(CC)CC(=O)Nc1c(C)cccc1C [Lidocaine],0.000882 ± 0.043

# Same assay, conditions: 10 µM; 6 d
row,Structure (SMILES),basal (log10)
1,CC(NC(=O)C(O)c1cc(F)cc(F)c1)C(=O)NC1C(=O)N(C)c2ccccc2-c2ccccc21 (stereo not given),-0.109 ± 0.054
2,O=C(NCc1cccc(O)c1)Nc1nc(-c2ccncc2)cs1,-0.149 ± 0.19
3,COc1cc2nc(N3CCN(C(=O)C4COc5ccccc5O4)CC3)nc(N)c2cc1OC (stereo not given) [Doxazosin Mesylate],0.0391 ± 0.12
4,CC(C)Oc1ccc(-c2cnc3c(-c4ccnc5ccccc45)cnn3c2)cc1,-0.0754 ± 0.044
5,CCc1nc(N)nc(N)c1-c1ccc(Cl)cc1 [Pyrimethamine],-0.0758 ± 0.076
6,CS(=O)(=O)N1CCN(Cc2cc3nc(-c4cccc5[nH]ncc45)nc(N4CCOCC4)c3s2)CC1,-0.156 ± 0.083
7,Cc1ccc(S(=O)(=O)n2c(N)nc3ccccc32)cc1 [ML130 (Nodinitib-1)],0.021 ± 0.026
8,C=CC(=O)Nc1cccc(Nc2nc(Nc3ccc(OCCOC)cc3)ncc2F)c1,-0.213 ± 0.08
9,CC(C)C[C@H](NC(=O)[C@H](Cc1ccccc1)NC(=O)c1cnccn1)B(O)O [Bortezomib (PS-341)],-0.153 ± 0.045
10,CC(C)(C)c1cc(NC(=O)Nc2ccc(-c3cn4c(n3)sc3cc(OCCN5CCOCC5)ccc34)cc2)no1 [Quizartinib (AC220)],-0.076 ± 0.15
11,O=C(/C=C/n1cnc(-c2cc(C(F)(F)F)cc(C(F)(F)F)c2)n1)N1CC(F)(F)C1,-0.256 ± 0.13
12,Cn1cc(/C=C2\C(=O)Nc3cccnc32)c2ccccc21,0.0876 ± 0.18
13,N#CC1(c2ccc(NC(=O)c3cccnc3NCc3ccncc3)cc2)CCCC1 [Apatinib],0.0116 ± 0.087
14,NC(=O)c1cccc(-c2cccc(OC(=O)NC3CCCCC3)c2)c1,-0.077 ± 0.12
15,COc1ccc(COc2ccc(Cc3cnc(N)nc3N)cc2OC)cc1,-0.0181 ± 0.048
16,Cc1ccc(S(=O)(=O)OCC(=O)Nc2ccc(C(=O)O)c(O)c2)cc1,0.0359 ± 0.066
17,CCN(c1cc(-c2ccc(CN3CCOCC3)cc2)cc(C(=O)NCc2c(C)cc(C)[nH]c2=O)c1C)C1CCOCC1,0.0618 ± 0.31
18,NC(=O)Nc1cc(-c2cccc(F)c2)sc1C(=O)N[C@H]1CCCNC1,-0.22 ± 0.094
19,COc1ccc(CNCc2cccc3ccccc23)cc1,-0.0178 ± 0.054

row,Structure (SMILES),basal (log10)
1,CC(C)CCNC(=O)[C@H](CC(C)C)NC(=O)[C@H]1O[C@@H]1C(=O)O [Loxistatin Acid (E-64C)],0.00356 ± 0.072
2,O=C(O)c1cccc(-c2noc(-c3ccccc3F)n2)c1 [Ataluren (PTC124)],0.00879 ± 0.067
3,CN(Cc1cnc2nc(N)nc(N)c2n1)c1ccc(C(=O)N[C@@H](CCC(=O)O)C(=O)O)cc1 [Methotrexate],-0.0756 ± 0.085
4,CN1C2CCCC1CC(NC(=O)c1nn(C)c3ccccc13)C2 (stereo not given) [Granisetron HCl],-0.0434 ± 0.16
5,COc1cc(Br)c(Nc2nc(-c3c(C)nc4ncccn34)cs2)c(Br)c1,-0.0609 ± 0.17
6,CN[C@@H](C)C(=O)N[C@H](C(=O)N1CCC[C@H]1C(=O)Nc1snnc1-c1ccccc1)C1CCCCC1,0.103 ± 0.085
7,O=C1CC(=O)c2c(Cl)c(Cl)c(Cl)c(Cl)c21,-0.0151 ± 0.11
8,"COc1cc2c(cc1Cc1cccc(Cl)c1F)c(=O)c(C(=O)O)cn2[C@H](CO)C(C)C [Elvitegravir (GS-9137, JTK-303)]",-0.0898 ± 0.11
9,O=[N+]([O-])c1ccc2c(c1)S(=O)(=O)C=C2 [Stattic],-0.00258 ± 0.045
10,CC(C)(C)c1cc(/C=C(\C#N)C(N)=S)cc(C(C)(C)C)c1O [Tyrphostin AG 879],-0.0475 ± 0.16
11,CN1CCC[C@@H]1CCO[C@](C)(c1ccccc1)c1ccc(Cl)cc1 [Clemastine Fumarate],-0.0614 ± 0.048
12,NC(=O)c1ncn([C@@H]2O[C@H](CO)[C@@H](O)[C@H]2O)c1N [Acadesine],-0.0697 ± 0.036
13,O=C(O)Cc1cccc(OCCCN(Cc2cccc(C(F)(F)F)c2Cl)CC(c2ccccc2)c2ccccc2)c1,-0.00914 ± 0.083
14,CNC(=C[N+](=O)[O-])NCCSCc1ccc(CN(C)C)o1 [Ranitidine],-0.0682 ± 0.033
15,O=C(NOC[C@H](O)CO)c1ccc(F)c(F)c1Nc1ccc(I)cc1F,-0.187 ± 0.053
16,COc1ccc2cccc(CCNC(C)=O)c2c1 [Agomelatine],-0.0327 ± 0.046
17,CNC(=O)c1cc(Oc2ccc(NC(=O)Nc3cc(C(C)(C)C)nn3-c3ccc4ncccc4c3)c(F)c2)ccn1 [DCC-2036 (Rebastinib)],-0.209 ± 0.13
18,CCN(CC)CC(=O)Nc1c(C)cccc1C [Lidocaine],0.0191 ± 0.034
